Laboratory results from the CheMixHub viscosity set.
This continues a long series; more values of the same kind are listed elsewhere.

Experiment: xn = mol fraction of the nth substance listed

N[C@@H](CO)C(=O)O + O
viscosity [mPa·s]
Conditions	293.15 K	298.15 K	303.15 K	308.15 K	313.15 K	318.15 K	323.15 K
100 kPa, x1 = 0.000191	–	0.8931	0.7996	0.721	0.6546	–	–
100 kPa, x1 = 0.00036	–	0.8953	0.8015	–	–	–	–
100 kPa, x1 = 0.00045	–	0.8961	0.8023	0.7238	–	–	–
100 kPa, x1 = 0.000722	–	0.9	0.8056	0.7257	0.6587	–	–
100 kPa, x1 = 0.0009	–	0.9013	0.8067	0.7275	0.6598	–	–
100 kPa, x1 = 0.00108	–	0.9046	0.8096	0.7288	0.6614	–	–
100 kPa, x1 = 0.0013	–	–	0.8112	0.7316	–	–	–
100 kPa, x1 = 0.00146	–	0.9095	0.8139	0.7321	0.6643	–	–
100 kPa, x1 = 0.0018	–	0.9125	0.816	0.7356	0.6663	–	–
100 kPa, x1 = 0.001802	–	0.914	0.8178	0.7351	0.667	–	–
100 kPa, x1 = 0.001877	–	0.909	0.813	0.732	–	0.6	0.544
100 kPa, x1 = 0.002243	–	0.9198	0.8228	–	0.6705	–	–
100 kPa, x1 = 0.00225	1.037	0.9178	0.821	0.7398	–	–	–
100 kPa, x1 = 0.002673	1.042	0.9255	0.8277	0.7426	0.6739	–	–
100 kPa, x1 = 0.00269	1.043	0.9237	0.8256	0.7437	0.6726	–	–
100 kPa, x1 = 0.00314	–	0.9295	–	0.748	–	–	–
100 kPa, x1 = 0.003583	1.045	–	0.829	–	–	0.609	0.552
100 kPa, x1 = 0.00359	–	0.9351	0.8349	0.7519	0.6793	–	–
100 kPa, x1 = 0.00531	–	–	0.846	–	–	0.62	0.563
100 kPa, x1 = 0.007277	1.099	0.973	0.868	0.78	0.706	0.636	0.577
100 kPa, x1 = 0.008975	1.123	0.996	0.889	0.798	0.721	0.65	0.588
101.3 kPa, x1 = 0.0004484	–	–	–	0.722	–	0.597	–
101.3 kPa, x1 = 0.0008915	–	–	–	0.726	0.66	0.601	–
101.3 kPa, x1 = 0.001352	–	–	–	0.73	0.664	0.605	–
101.3 kPa, x1 = 0.001784	–	–	–	0.734	0.668	0.609	–
101.3 kPa, x1 = 0.002244	–	–	0.819	0.738	0.672	0.613	–
101.3 kPa, x1 = 0.002683	–	–	0.823	0.742	–	0.617	–

CCNCCO + O
viscosity [mPa·s], 101 kPa
Conditions	303.15 K	308.15 K	313.15 K	318.15 K	323.15 K
x1 = 0.0499	–	1.691	1.468	1.293	1.147
x1 = 0.0998	–	3.168	2.642	2.249	1.933
x1 = 0.1506	–	4.98	4.071	3.386	2.853
x1 = 0.2011	–	6.866	5.535	4.542	3.786
x1 = 0.2982	–	10.36	8.175	6.598	5.373
x1 = 0.4029	–	13.17	10.31	8.211	6.652
x1 = 0.4458	–	13.88	10.84	8.636	6.951
x1 = 0.5051	–	14.48	11.26	8.94	7.192
x1 = 0.5529	18.74	14.48	11.29	8.986	7.232
x1 = 0.6002	18.37	14.21	11.12	8.889	7.163
x1 = 0.6508	17.75	13.67	–	8.605	6.965
x1 = 0.7049	16.67	13	10.26	8.254	6.711
x1 = 0.7985	–	11.44	9.124	7.418	6.078
x1 = 0.9014	12.14	9.709	7.861	6.443	5.363
